The other results are listed elsewhere or left out. The list includes weakly bound sequences.
target: T1, MBP-FoxP3dN (UniProt Q99JB6); experiment: PD-seq (MBP pull-down with sequencing); details: 20 mM Tris-HCl pH 7.5, 100 mM NaCl, 1.5 mM MgCl2, 0.4 uM protein, 0.1 uM dsDNA library, 30 min, room temperature, amylose pull-down; high values mean tight binding; double strand, one strand shown
T1 sequence: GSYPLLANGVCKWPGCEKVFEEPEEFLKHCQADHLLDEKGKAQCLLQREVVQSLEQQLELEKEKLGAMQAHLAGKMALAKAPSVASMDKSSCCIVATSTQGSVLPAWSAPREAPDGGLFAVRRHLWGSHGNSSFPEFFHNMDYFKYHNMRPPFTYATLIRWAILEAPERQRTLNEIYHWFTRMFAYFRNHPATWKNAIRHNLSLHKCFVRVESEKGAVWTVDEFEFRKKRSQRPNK

| Sequence | binding signal (RPM ratio (pull-down/input)) |
| --- | --- |
| GATGATTGTTCTCCCAGCTGATGAATTCACGCGGTCGAGTAAACAAATTTTCCTAATCTTTCTGTTCAAGCGCCATCTAC | 0.589 |
| GATGATTGTTCTCCCAGCTGATGAATTGCCCGTATCGAGTAAACAAATTTTCCTAATCTTTCTGTTCAAGCGCCATCTAC | 0.615 |
| GATGATTGTTCTCCCAGCTGATGAATTTAAGGTTTCGAGTAAACAAATTTTCCTAATCTTTCTGTTCAAGCGCCATCTAC | 0.51 |
| GATGATTGTTCTCCCAGCTGATGAATTGGATTAGTCGAGTAAACAAATTTTCCTAATCTTTCTGTTCAAGCGCCATCTAC | 0.801 |
| GATGATTGTTCTCCCAGCTGATGAATTAAGAGAGTCGAGTAAACAAATTTTCCTAATCTTTCTGTTCAAGCGCCATCTAC | 0.224 |
| GATGATTGTTCTCCCAGCTGATGAATTCCGAGCGTCGAGTAAACAAATTTTCCTAATCTTTCTGTTCAAGCGCCATCTAC | 0.4 |
| GATGATTGTTCTCCCAGCTGATGAATTAACCTATTCGAGTAAACAAATTTTCCTAATCTTTCTGTTCAAGCGCCATCTAC | 0.33 |
| GATGATTGTTCTCCCAGCTGATGAATTAGTGACGTCGAGTAAACAAATTTTCCTAATCTTTCTGTTCAAGCGCCATCTAC | 0.653 |
| GATGATTGTTCTCCCAGCTGATGAATTCCTTTCGTCGAGTAAACAAATTTTCCTAATCTTTCTGTTCAAGCGCCATCTAC | 0.376 |
| GATGATTGTTCTCCCAGCTGATGAATTGTGCGCGTCGAGTAAACAAATTTTCCTAATCTTTCTGTTCAAGCGCCATCTAC | 3.85 |
| GATGATTGTTCTCCCAGCTGATGAATTTATGTGATCGAGTAAACAAATTTTCCTAATCTTTCTGTTCAAGCGCCATCTAC | 1.21 |
| GATGATTGTTCTCCCAGCTGATGAATTCTGACTCTCGAGTAAACAAATTTTCCTAATCTTTCTGTTCAAGCGCCATCTAC | 1.67 |
| GATGATTGTTCTCCCAGCTGATGAATTCTTAGCCTCGAGTAAACAAATTTTCCTAATCTTTCTGTTCAAGCGCCATCTAC | 0.373 |
| GATGATTGTTCTCCCAGCTGATGAATTTGTTTCGTCGAGTAAACAAATTTTCCTAATCTTTCTGTTCAAGCGCCATCTAC | 5.96 |
| GATGATTGTTCTCCCAGCTGATGAATTAATCTCATCGAGTAAACAAATTTTCCTAATCTTTCTGTTCAAGCGCCATCTAC | 0.347 |
| GATGATTGTTCTCCCAGCTGATGAATTTATTTGTTCGAGTAAACAAATTTTCCTAATCTTTCTGTTCAAGCGCCATCTAC | 6.33 |

| Sequence | binding signal (RPM ratio (pull-down/input)) |
| --- | --- |
| GATGATTGTTCTCCCAGCTGATGAATTTTCAGGATCGAGTAAACAAATTTTCCTAATCTTTCTGTTCAAGCGCCATCTAC | 0.181 |
| GATGATTGTTCTCCCAGCTGATGAATTCGGAGTCTCGAGTAAACAAATTTTCCTAATCTTTCTGTTCAAGCGCCATCTAC | 1.21 |
| GATGATTGTTCTCCCAGCTGATGAATTATTCTGGTCGAGTAAACAAATTTTCCTAATCTTTCTGTTCAAGCGCCATCTAC | 0.246 |
| GATGATTGTTCTCCCAGCTGATGAATTAATCCCCTCGAGTAAACAAATTTTCCTAATCTTTCTGTTCAAGCGCCATCTAC | 0.379 |
| GATGATTGTTCTCCCAGCTGATGAATTAGAGTACTCGAGTAAACAAATTTTCCTAATCTTTCTGTTCAAGCGCCATCTAC | 0.674 |
| GATGATTGTTCTCCCAGCTGATGAATTCACGCATTCGAGTAAACAAATTTTCCTAATCTTTCTGTTCAAGCGCCATCTAC | 5.67 |
| GATGATTGTTCTCCCAGCTGATGAATTCCTACCGTCGAGTAAACAAATTTTCCTAATCTTTCTGTTCAAGCGCCATCTAC | 0.225 |
| GATGATTGTTCTCCCAGCTGATGAATTGGCAAGCTCGAGTAAACAAATTTTCCTAATCTTTCTGTTCAAGCGCCATCTAC | 0.36 |
| GATGATTGTTCTCCCAGCTGATGAATTGTGCGCATCGAGTAAACAAATTTTCCTAATCTTTCTGTTCAAGCGCCATCTAC | 2.13 |
| GATGATTGTTCTCCCAGCTGATGAATTTCGATAATCGAGTAAACAAATTTTCCTAATCTTTCTGTTCAAGCGCCATCTAC | 0.411 |
| GATGATTGTTCTCCCAGCTGATGAATTGCAACTTTCGAGTAAACAAATTTTCCTAATCTTTCTGTTCAAGCGCCATCTAC | 2.55 |
| GATGATTGTTCTCCCAGCTGATGAATTACTTATTTCGAGTAAACAAATTTTCCTAATCTTTCTGTTCAAGCGCCATCTAC | 0.614 |
| GATGATTGTTCTCCCAGCTGATGAATTGCACCTTTCGAGTAAACAAATTTTCCTAATCTTTCTGTTCAAGCGCCATCTAC | 1.17 |
| GATGATTGTTCTCCCAGCTGATGAATTCCATCCATCGAGTAAACAAATTTTCCTAATCTTTCTGTTCAAGCGCCATCTAC | 0.388 |
| GATGATTGTTCTCCCAGCTGATGAATTAGAGGATTCGAGTAAACAAATTTTCCTAATCTTTCTGTTCAAGCGCCATCTAC | 0.33 |
| GATGATTGTTCTCCCAGCTGATGAATTAGGCCCCTCGAGTAAACAAATTTTCCTAATCTTTCTGTTCAAGCGCCATCTAC | 1.04 |

Reference: paper PMC12820563
